Results as given in PubChem BioAssay AID588342 (National Center for Advancing Translational Sciences (NCATS), 2011).
The campaign covered roughly 360,000 compounds. About 25,000 (6.9%) were called active. This list was built around the results that the source calls inconclusive (neither active nor inactive); the mix of calls is not that of the screen. Calls follow the shape of the dose curve; as a rule, active = well fitted inhibition curve with a large enough effect; inconclusive = small, poorly fitted or top-dose-only effect; inactive = flat fitted curve, though single readings scatter. A potency beside an inconclusive call is a rough fit, not a confirmed value.

Molecular target: Luciferin 4-monooxygenase (Photinus pyralis) (UniProt P08659)
Chain of UniProt P08659 (P08659 whole entry, looked up): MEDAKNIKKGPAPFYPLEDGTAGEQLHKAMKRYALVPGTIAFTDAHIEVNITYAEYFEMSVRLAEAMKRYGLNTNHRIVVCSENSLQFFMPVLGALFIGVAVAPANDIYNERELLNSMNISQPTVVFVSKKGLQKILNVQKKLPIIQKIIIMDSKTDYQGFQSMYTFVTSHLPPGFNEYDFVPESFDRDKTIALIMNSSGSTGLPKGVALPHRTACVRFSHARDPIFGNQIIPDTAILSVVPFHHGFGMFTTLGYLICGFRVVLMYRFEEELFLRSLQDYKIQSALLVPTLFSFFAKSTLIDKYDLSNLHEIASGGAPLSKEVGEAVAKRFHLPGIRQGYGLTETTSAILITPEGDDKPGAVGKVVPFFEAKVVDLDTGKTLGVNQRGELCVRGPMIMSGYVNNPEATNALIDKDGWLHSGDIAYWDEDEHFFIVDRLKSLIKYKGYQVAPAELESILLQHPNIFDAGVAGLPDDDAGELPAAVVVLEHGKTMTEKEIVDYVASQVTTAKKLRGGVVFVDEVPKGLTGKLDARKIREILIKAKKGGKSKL
Experiment: qHTS profiling assay for firefly luciferase inhibitor/activator using purifed enzyme and Km concentrations of substrates (counterscreen for miR-21 project); also: nearly all actives have a fitted effect of over 55% in size;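 as to activity change, negative = inhibition: plate controls were vehicle for no effect and reference inhibitor for full effect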
Details: purified FLuc, luminescence inhibition; series mostly up to 57.5 µM; activity change, negative = inhibition: at the top concentration
Method in brief: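 Purified P. pyralis luciferase, 10 nM final, with Km-level 10 uM D-luciferin and 10 uM ATP in 50 mM Tris acetate pH 7.5, 10 mM Mg acetate, 0.01% Tween-20, 0.05% BSA; 6-point qHTS titration about 60 µM downward; luminescence read.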
Potency is read from the fitted curve at half-maximal effect; tags tell the direction and shape of the fitted curve.

SMILES | Potency | activity change, negative = inhibition
Cc1ccc(/C=N/NC(=O)CSc2nc3nc(C)cc(C)n3n2)cc1 | inconclusive: 37.9 µM [inhibitor, partial curve, poor fit] | –
Cc1ccc(NC(=O)c2cc3ccccn3n2)cc1F | active: 2.39 µM | –
CCCCOC(=O)c1ccc(NC(=S)NC(=O)c2ccco2)cc1 | – | inactive: -2.5%
COc1ccc(/C=N/NC(=O)C(C)Sc2ccccn2)cc1[N+](=O)[O-] (centres undefined) | – | inactive: -6.05%
COc1cccc(C(=O)n2c(SC)nc3cc4c(cc32)OCCO4)c1 | active: 13.5 µM | –
CC(C)(C)c1ccc(/C=C2\SC(=O)N(CCNC(=O)c3cccc(S(=O)(=O)N4CCOCC4)c3)C2=O)cc1 | active: 0.536 µM | –
CCOc1ccc(N2CC(C(=O)Nc3ccccc3C(=O)N3CCOCC3)CC2=O)cc1 (centres undefined) | – | inactive: -0.226%
CCC/C(C)=C/c1ccc(CC)cn1 | active: 9.53 µM | –
COc1ccc(-c2cn3nc(N4CCC(C(=O)Nc5cc(Cl)ccc5C)CC4)sc3n2)cc1 | – | inactive: -15.3%
COc1cc(CN2CCN(Cc3ccc([N+](=O)[O-])cc3)CC2)c([N+](=O)[O-])cc1OC | – | inactive: -0.887%
CC(C)c1cc(C(=O)NNC(=S)NC2CCCCC2)cs1 | inconclusive: 21.3 µM [inhibitor, partial curve] | –
COc1ccc(NC(=O)CCCn2c(=O)c3cccn3c3cccnc32)cc1Cl | – | inactive: -2.18%
O=C(/C=C/c1ccc(F)cc1)OCC(=O)c1ccc[nH]1 | inconclusive: 5.36 µM [inhibitor, partial curve, poor fit] | –
CN(C)N=Nc1ccc2nc[nH]c2c1 | inconclusive: 37.9 µM [inhibitor, single point] | –
O=C(CCn1cnc2ccccc21)N/N=C/c1ccc(O)cc1 | inconclusive: 19 µM [inhibitor, partial curve, poor fit] | –
CCCN(CCC)C(=O)Cn1c(=O)n(CCCCCC(=O)NCc2ccc3c(c2)OCO3)c(=O)c2sccc21 | – | inactive: -12.8%
CN(C)c1ccc(/C=N/NC(=O)CNC(=O)/C=C/c2ccccc2)cc1 | active: 2.39 µM | –
Cc1ccc(C)n1-c1nnc(N2CCCC(C(=O)Nc3ccccc3Br)C2)s1 (centres undefined) | – | inactive: 7.12%
O=C(COC(=O)c1cnccn1)c1ccc(Br)cc1 | active: 15.1 µM | –
COc1ccccc1N1C(=O)c2ccc(C(=O)Nc3ccc(F)cc3)cc2C1=O | inconclusive: 16.9 µM [inhibitor, partial curve] | –
COc1ccccc1NC(=O)Nc1cc(NC(=O)Nc2ccccc2OC)c(C)nc1C | – | inactive: -1.12%
COc1cc(SC)ccc1C(=O)Nc1cc(C)ccn1 | active: 1.35 µM | –
O=[N+]([O-])c1ccccc1/C=C/CN1CCN(Cc2ccc3c(c2)OCO3)CC1 | – | inactive: -10.7%
COc1cc(C(=O)OCc2ccc([N+](=O)[O-])cc2)cc(OC)c1OC | – | inactive: 2.68%
Cc1nc(-c2ccc(Cl)cc2)sc1C(=O)NN | inconclusive: 23.9 µM [inhibitor, single point] | –

SMILES | Potency | activity change, negative = inhibition
O=C(CNC(=O)c1ccco1)Nc1ccc(Cl)cc1 | inconclusive: 19 µM [inhibitor, partial curve] | –
CCOc1ccc(NC(=O)NC2CCCCCCC2)cc1 | active: 5.36 µM | –
Cc1[nH]c2ccccc2c1C(=O)CSc1ccccc1 | inconclusive: 21.3 µM [inhibitor, partial curve, poor fit] | –
O=C(Nc1nnc(-c2ccco2)o1)c1ccc([N+](=O)[O-])s1 | inconclusive: 23.9 µM [inhibitor, partial curve] | –
COc1ccc(-c2cn(Cc3ccc(C(N)=O)cc3)c(-c3ccc(Cl)nc3)n2)cc1 | inconclusive: 13.5 µM [inhibitor, partial curve, poor fit] | –
O=C(NNc1nc2ccc(F)cc2s1)c1cccc(F)c1 | inconclusive: 23.9 µM [inhibitor, partial curve] | –
Cc1ccc(NC(=O)Nc2ccccc2CC[N+](=O)[O-])cc1 | inconclusive: 19 µM [inhibitor, partial curve] | –
O=C(Nc1cccc(Cl)c1)N1CCc2ccccc2C1 | active: 9.53 µM | –
CCN(CC)c1ccc(/C=N/Nc2ccccc2)c(O)c1 | active: 21.3 µM | –
CC(=O)Nc1ccc(NC(=O)C2CCCN2C(=O)Nc2ccc(F)c([N+](=O)[O-])c2)cc1 (centres undefined) | – | inactive: -1.13%
COc1ccccc1C(=O)Nc1ccc(Br)c2cccnc12 | active: 12 µM | –
CCOC(=O)C1(Cc2ccccc2Cl)CCN(C(=O)c2cc(C)on2)CC1 | inconclusive: 21.3 µM [inhibitor, single point] | –
Cc1cc(-n2ccnc(NCCc3ccc(S(N)(=O)=O)cc3)c2=O)ccc1Br | – | inactive: -2.04%
C/C(=N\NC(=O)c1ccccn1)c1ccc(C(=O)O)s1 | inconclusive: 21.3 µM [inhibitor, single point] | –
COc1ccc(NC(=O)c2ccco2)cc1NC(=O)c1cc(OC)c(OC)c(OC)c1 | inconclusive: 30.1 µM [inhibitor, single point] | –
O=C(NCc1cccnc1)C(=O)Nc1ccc2c(c1)OCO2 | – | inactive: -13.8%
C/C(=N\Nc1ccc(Cl)c(C(=O)O)c1)c1cccs1 | inconclusive: 26.9 µM [inhibitor, partial curve, poor fit] | –
COc1ccc(/C=C2\N=C(c3ccc(C)cc3)OC2=O)cc1 | inconclusive: 8.49 µM [inhibitor, partial curve] | –
CC(C)c1ccc(/C=C/C(=O)N2CCc3ccccc3C2)cc1 | inconclusive: 33.8 µM [inhibitor, single point] | –
CNC(=O)c1[nH]nc2c1CCc1ccccc1-2 | inconclusive: 37.9 µM [inhibitor, partial curve, poor fit] | –
c1ccc(-c2ccc(OCCOCCn3cncn3)cc2)cc1 | inconclusive: 19 µM [inhibitor, partial curve] | –
O=C(/C=C/c1ccco1)NCc1ccc2c(c1)OCO2 | inconclusive: 37.9 µM [inhibitor, partial curve, poor fit] | –
CCO/C=C1/C(=O)N(c2ccccc2OC)C(=O)c2ccccc21 | inconclusive: 30.1 µM [inhibitor, partial curve, poor fit] | –
COc1ccc(-c2nn3c(-c4ccccc4)nnc3s2)cc1 | inconclusive: 21.3 µM [inhibitor, partial curve, poor fit] | –
